The subject of one experiment is SK-OV-3 ovarian. The experiment in a line: NCI-60 one-dose screen, 48 h (100 = growth as untreated, 0 = no growth, -100 = all killed). Conditions: 25 µM.
The test system of a further experiment is IGROV1 ovarian. The description is as above. Particulars: 0.25 µM.

Structures are written as SMILES. A structure can be active in one record and inactive in another.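 Assay: single dose, 48 h. Readout: percent growth (0 = no net growth; negative = cell death). Active: <10.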 For part of its entries the source gives two or more results. The list is limited to them. There may be further records. The screen tested this drug many times, at its own concentration, as given; one value stands for one run. Marks such as (2×) stand for listed records that agree.

In the case of `COc1cccc2c1C(=O)c1c(O)c3c(c(O)c1C2=O)C[C@@](O)(C(=O)CO)C[C@@H]3OC1CC(N)C(O)C(C)O1` (stereo not given in full), the growth result in the experiment with SK-OV-3 ovarian (runs of 1997) is “active: 8.81, -16.9, -20, 0.707, -31.4, 7.57, 8.04, 0.337, -19.5, -2.93 (2×), 3.56, 5.37, 8.54, 1.28, 8.56, -1.71, 7.02 (2×), -10.4, -9.89, -16.4, 5.63, -3.92, -34.8, -6.39, -14.7, -31, 5.39, -1.7, -3.57, 9.41, -5.65, -13.6% and inactive: 15.3, 14.1, 10.3, 15.5 (2×), 17, 11.2%”; in the experiment on SK-OV-3 ovarian (runs of 1998), “inactive: 18.1, 25, 20, 13.6, 12.9% and active: -21.3, -4.83, -12.6, 9.94, -1.55, -34.6, -1.57, -22.7, -24.1, -7.16, -7.72, -7.79, -30.8, -30.4, -15.2, -2.4, -10.4, -10.2, 1.21, -35.2%”; in the experiment on SK-OV-3 ovarian (runs of 1999), “active: 7.25, -12.5, -64.2, 2.13, -24.1, 1.89, 3.35, -9.09, -16, -56.1, 5.17, 4.79, -77.7, -63.2, -35.8% and inactive: 30.4%, 13%”; with SK-OV-3 ovarian (runs of 2000), “active: 2.39, -100, 2.33, -55.9%”; in the experiment with IGROV1 ovarian (runs of 2006) it was “inactive: 36.8%, 31.9%”; in the experiment on IGROV1 ovarian (runs of 2007) it was “inactive: 46, 18.6, 17 (2×), 30.8, 35.5, 33.1, 24.7, 30.9, 29.9, 27.9, 41.7, 56.2, 54.9, 64.2, 64.1, 17.2, 42.7, 60.6, 56.1, 22.4, 20.7, 31.8, 74.2, 54.5, 49.2, 63.6, 61.2, 52.3, 49, 74.6% and active: -44.6, -23.2, -31.6, -0.881, -4.67, -6%”. Moreover, the growth entry with IGROV1 ovarian (runs of 2008) was “active: -14.4, -1.83, 3.24, -3.82, -2.63, 2.84, 1.99, 2.17, 9.39% and inactive: 45.1, 14.2, 13.4 (2×), 28.7, 38.4, 46.8, 56.2, 16.7, 22.7, 30.6, 32.5, 55.2, 63, 24.5, 47.3, 43.8, 23.8, 17.3, 18.5, 16.4, 43.7, 55.9, 59.8, 37.3, 22.8 (2×), 49.1, 75.7, 28.3, 34.4, 15.6, 18.9, 19.9, 61.2, 32.1, 44.9, 34.1%”; in the experiment on IGROV1 ovarian (runs of 2009), “inactive: 49.9, 33.9, 79.6, 74.3, 68.7, 77.2, 49.8 (2×), 53.8, 56.9, 58.7, 69.8, 38, 51, 40.8, 45, 49.7, 47.7, 44.9, 60.1, 61.9, 44.6, 38.9, 31.4, 28.7, 29.4, 23.2, 51.3, 20.1, 37.6, 40.6, 52.6, 20.2, 37.9, 16.2, 37.4, 25.4, 32.2, 19.2, 48.3, 60.7, 37.7, 40.9, 28.9, 43.5 (2×), 48.1, 41.1, 51.6, 31.1, 53.4, 64.1, 27.8, 48.7, 69, 47.9, 46.9, 36.5, 53.3, 42.4, 36.6, 59.2, 57.9, 62.8% and active: 8.1, -6.45, -2.89, -6.65, 5.41%”; with IGROV1 ovarian (runs of 2010), “inactive: 47.6, 58.9, 48, 31.5, 50.7, 44.7, 24.2, 48.5, 21, 52.2, 40.1, 58.6, 45.2, 13.3, 43.3, 34.2, 46.8, 30.7, 37.9, 45.9, 47.1, 41.1, 55.9, 41.9, 41.5, 25.3, 26.7, 41.7 (2×), 29.2, 29.1, 30.8, 12.7, 29.3, 17.9, 41.3, 49.5, 46.6, 55.6, 44.2, 43.1, 50.3, 44.9, 44.1, 38.9% and active: 0.608%”; in the experiment with IGROV1 ovarian (runs of 2011), “inactive: 38.2, 53 (2×), 44.7, 46.9, 58.3, 70.9, 61.2, 46.3, 41, 59.7, 63.1 (2×), 57.1, 59, 52.9, 64.6, 64.7, 59.9, 52.5 (2×), 57 (2×), 65.3, 57.2, 47.7, 49.1, 45.5, 39.7, 25.3, 39.1, 37.1, 50.1, 43.7, 48.7 (2×), 40.6, 49.3, 60.6, 52.6, 51, 40.5, 44.5, 48.3, 42, 39, 51.3, 42.3, 34.1, 45.2, 50.4, 62.5, 61.1, 38.7, 58.5%”; in the experiment on IGROV1 ovarian (runs of 2012), “inactive: 52.9, 28.1, 61.9, 53.4, 44.9, 60 (2×), 70.9, 75.6, 54.4, 54.9, 56.5, 41.9, 63.1, 49.2, 50.9, 61.1, 49.3, 51.1, 56.3 (2×), 59.9, 51.2, 63.7, 58.8, 55.6, 67.1, 39.7, 43.3, 69.5, 69.6, 68.6, 57.5, 57.6, 55.3, 46, 60.1 (2×), 49.6, 52.5, 63.9, 60.9, 62.1, 52.6, 62.5, 50, 46.5, 45.8, 61.3, 55.4, 65.5, 56.9 (3×), 35.4, 36.8, 46.3, 51.6, 30.8, 39.5, 28.4, 27.4, 27.5, 26.4, 39.6, 33.8% and active: -19.3%”; with IGROV1 ovarian (runs of 2013), “inactive: 37.6, 31.9, 33.4, 32.2, 43.4, 43.8, 39.6, 40.3, 38.3, 46.5, 49.1, 56.8, 68.4, 47.3, 47.9, 58.2, 38.7, 65.8, 62.7, 36, 52.3, 54.6, 49.2, 41.8, 38.5, 46.7, 46.9 (2×), 37.9, 56.4, 54.9, 64.9, 60.8, 45.2, 42.3 (2×), 33.2, 47.8, 44.5, 67.9, 70.8, 63.4, 55.9, 53.9 (2×), 68, 50.1, 26.1, 62.4, 24.8, 39, 17.6, 55.4 (2×), 51.8, 38, 49.5, 28.3, 30.8, 54, 33.3, 33.7, 60.3, 39.3, 49.6, 49.8, 43.1, 58.9, 57.6, 58.8, 59.6, 63.3, 24.9% and active: 7.49%”. The growth result with IGROV1 ovarian (runs of 2014) is “inactive: 61.4, 48.5 (2×), 55.5, 45.9, 51.2 (2×), 56.9, 55.4, 52.1, 61.2, 59.8, 54.4, 61.1, 61.9, 58.1, 59.1, 68, 69.8, 54.1 (2×), 59, 53.4 (2×), 52.6, 56.2, 52.4, 56.5, 53, 60.7 (2×), 67.4, 53.2, 64.3, 60.4, 40.1, 39.1, 34.8, 57.3, 57.9, 44.5 (2×), 22.9, 39.3, 40.8, 46.6, 39.2, 44, 47.9, 45.4, 49.5, 47.2, 47.6, 50, 49.2, 45.1, 42.3, 42.6, 45, 47.3, 52.2, 54.5, 50.9, 41.4, 46.7, 49.3, 48.3, 55.6, 59.6, 47.7, 50.1, 50.6, 42.7%”; in the experiment on IGROV1 ovarian (runs of 2015), “inactive: 50.5, 48.8, 51.2 (3×), 50.9, 50.2, 40.6, 40.4, 46.5 (2×), 34.7, 33.7, 30.3, 28, 33.8, 31.2, 31.3, 35, 39.3, 37.4, 41.3, 58.9, 46.4, 44.1 (2×), 48, 39.5, 49.7, 47, 39.6, 43.8 (2×), 46.3, 48.4, 34.9 (2×), 45, 44.5, 43, 51.8 (2×), 44.2, 40.5, 45.3, 50.1 (2×), 37.1, 37.3, 35.3, 41.1, 31.8, 58.6, 41.9, 42, 54.4 (2×), 43.9, 36.4, 54.9, 54.5, 53.3, 56.2, 38, 50.7, 49.8, 56.7, 64.1, 64.5, 63.4%”; in the experiment with IGROV1 ovarian (runs of 2016) it was “inactive: 45.9 (2×), 42, 49.1, 52.1, 60.5, 40.7, 37.9, 41.6 (2×), 45.2, 48.4, 54.9, 48.3, 45.3, 46.7 (2×), 44.9 (2×), 50.4 (2×), 40.5 (2×), 47.1, 43.2, 41.1 (3×), 42.2, 35.1, 38.7, 51.6, 54.3, 37.3, 36.2, 34.9, 34.5, 33.4, 35.9, 36.5 (3×), 36.3 (2×), 35.2, 30.3 (2×), 35.8, 41.8 (2×), 40.8, 43.5, 37.8, 36, 39.6, 36.4, 36.9, 43.7, 44.3 (3×), 42.8 (2×), 50.6, 43.3, 42.7, 45.1, 35, 42.3, 36.8 (2×), 33, 33.5, 41.7, 43.8, 40.3, 30.9 (3×), 35.3, 37.1, 39, 43, 42.4, 45.4, 42.6%”.

The values above are taken from PubChem BioAssay (NCI).
